The test system of the test is BALB/cJ mice, ADJ-PC-6 ip tumor, median survival T/C. Description: NCI In Vivo Anticancer Drug Screen. Data for tumor model ADJ-PC-6 (intraperitoneal) in BALB/cJ mice. The note with it: endpoint: median survival time, schedule: Q04DX003 (ip), higher = longer survival. As to the method: The antitumor activity of compounds was measured in mice bearing transplantable tumors. Survival or tumor size were measured and the results are expressed as the measurement made in the treated group (T) divided by the measurement made in the vehicle treated control group (C). The tumor model used in this assay is ADJ-PC-6 (intraperitoneal) in BALB/cJ mice

Inconclusive results and toxic doses are left out. For part of its entries the source gives two or more results. They are shown here; other results are not. The source may hold further records. The records of an entry differ for a reason that is not stated; dose, time, organism, isomer or construct need not be as stated for each record.

Regarding `CN(C)/N=N/c1nc[nH]c1C(N)=O`, the T/C (dose: 100.0 mg/kg/injection, vehicle: Klucel (hydroxypropylcellulose) (HPC)) is 104 % of control and 177 % of control; the T/C (dose: 100.0 mg/kg/injection, vehicle: saline with Tween-80) is listed as 94 % of control, 335 % of control, 471 % of control.
As to `O=NN(CCCl)C(=O)NCCCl`, under “dose: 2.5 mg/kg/injection, vehicle: saline + alcohol”, the T/C is 103 % of control, 114 % of control, 152 % of control.

Source of the values: PubChem BioAssay AID184 (DTP/NCI, 2004).
